# Measured values taken from PubChem BioAssay AID504332 (National Center for Advancing Translational Sciences (NCATS), 2011).
# Among all 350,000 compounds or so, about 31,000 (8.9%) were called active. Inconclusive results, whose numbers are uncertain, are shown with a selection of clear calls. Calls come from the whole dose curve; as a rule, active = well fitted inhibition curve with a large enough effect; inconclusive = small, poorly fitted or top-dose-only effect; inactive = no such curve, though single readings can be large or run the other way. Potencies beside an inconclusive call are fits to weak or partial responses and may not hold up.
# Target: Histone-lysine N-methyltransferase EHMT2 (Homo sapiens) (UniProt Q96KQ7)
# Sequence of UniProt Q96KQ7 (Q96KQ7 whole entry, looked up): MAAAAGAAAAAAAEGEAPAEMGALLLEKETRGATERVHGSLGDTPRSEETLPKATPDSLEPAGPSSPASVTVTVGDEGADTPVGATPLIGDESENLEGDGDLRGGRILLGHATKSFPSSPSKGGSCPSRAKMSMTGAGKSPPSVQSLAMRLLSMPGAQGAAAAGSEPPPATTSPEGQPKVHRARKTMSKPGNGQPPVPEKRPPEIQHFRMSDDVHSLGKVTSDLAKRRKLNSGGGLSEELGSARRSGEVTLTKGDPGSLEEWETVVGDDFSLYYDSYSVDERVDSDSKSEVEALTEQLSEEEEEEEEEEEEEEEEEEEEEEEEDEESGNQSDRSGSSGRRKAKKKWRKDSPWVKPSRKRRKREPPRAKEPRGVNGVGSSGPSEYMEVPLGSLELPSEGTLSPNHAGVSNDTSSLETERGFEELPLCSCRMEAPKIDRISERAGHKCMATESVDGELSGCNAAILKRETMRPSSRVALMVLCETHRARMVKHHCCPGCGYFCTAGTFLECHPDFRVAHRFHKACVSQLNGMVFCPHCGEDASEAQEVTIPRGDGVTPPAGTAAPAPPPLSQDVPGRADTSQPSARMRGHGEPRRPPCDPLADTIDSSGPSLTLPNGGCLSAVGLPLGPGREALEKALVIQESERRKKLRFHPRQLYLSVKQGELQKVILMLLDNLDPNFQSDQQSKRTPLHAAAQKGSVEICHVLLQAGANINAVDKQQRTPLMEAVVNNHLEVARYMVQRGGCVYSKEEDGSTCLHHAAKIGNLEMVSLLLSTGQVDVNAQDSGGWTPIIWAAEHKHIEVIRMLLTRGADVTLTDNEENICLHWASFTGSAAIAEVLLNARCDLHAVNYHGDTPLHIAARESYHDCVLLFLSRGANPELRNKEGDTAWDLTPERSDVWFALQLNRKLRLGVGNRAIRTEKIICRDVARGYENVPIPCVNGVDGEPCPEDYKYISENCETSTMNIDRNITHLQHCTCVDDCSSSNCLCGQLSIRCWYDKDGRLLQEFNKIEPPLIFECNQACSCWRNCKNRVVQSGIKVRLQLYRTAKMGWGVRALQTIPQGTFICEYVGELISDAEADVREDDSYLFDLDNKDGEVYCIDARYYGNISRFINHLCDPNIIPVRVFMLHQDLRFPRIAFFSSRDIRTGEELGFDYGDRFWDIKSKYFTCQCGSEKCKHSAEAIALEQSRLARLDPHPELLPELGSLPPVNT
# Assay: qHTS Assay for Inhibitors of Histone Lysine Methyltransferase G9a; note: nearly all actives have a fitted effect of over 75% in size
# Conditions: G9a H3K9 monomethylation, AlphaScreen, 2 h; activity, negative = inhibition: at 59 µM (top of the series) unless noted
# How it was run: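 Signal arises when biotinylated H3K9 peptide, once monomethylated, bridges streptavidin donor and antibody-captured acceptor beads. Enzyme at 20 nM was preincubated 15 min with test compounds; peptide 500 nM and SAM 20 uM then reacted for 2 h.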
# % is set by controls: 0 for no effect and ±100 for the full control effect; potency is the fitted concentration of half-maximal effect; tags give direction and shape of the fitted curve.
Structure (SMILES),Potency,"activity, negative = inhibition"
Cc1cc(C(=O)NNC(=S)NCc2ccco2)n(C)n1,"inconclusive: 39.8 µM [inhibitor, single point]",
CCn1c(=O)c(C(=O)NCCNCCO)c(O)c2ccccc21,"inconclusive: 3.16 µM [inhibitor, partial curve, poor fit]",
COc1ccc(-c2cc3nc(-c4ccc(Br)cc4)cc(C(F)(F)F)n3n2)cc1,inactive,
Cc1cc(OCC(=O)N(C)Cc2ccccc2)ccc1Cl,"inconclusive: 39.8 µM [inhibitor, single point]",
CC(C)NC(=O)C1(c2ccccc2)CC1(Cl)Cl (centres undefined),inactive,
COCCN1C(=O)N(c2ccc(Cl)cc2)C(=O)C1CC(=O)Nc1cc(OC)cc(OC)c1 (centres undefined),"inconclusive: 17.8 µM [inhibitor, partial curve, poor fit]",
COc1cc(-c2ccc(NC(=O)c3ccc(C)cc3)c(OC)c2)ccc1NC(=O)c1ccc(C)cc1,"inconclusive: 70.8 µM [inhibitor, partial curve, poor fit]",
Cc1nnc(SCC(=O)N(CC(C)C)C2CCS(=O)(=O)C2)n1N (centres undefined),inactive,
Cc1ccc(NS(=O)(=O)c2cc(C(=O)O)ccc2Cl)c(C)c1,"inconclusive: 31.6 µM [inhibitor, single point]",
CCCOc1nc2c(c(=O)n(C)c(=O)n2C)n1Cc1cccc2ccccc12,"inconclusive: 31.6 µM [inhibitor, single point]",
COc1ccc(-c2[nH]ncc2N=Nc2ccccc2)cc1,active: 50.1 µM,
COc1ccc(CNC(=O)C2CCN(C(=O)c3ccc(-n4ccc5ccccc54)s3)CC2)cc1,inactive,
CCc1c(C)sc(NC(NC(C)=O)(C(=O)OC)C(F)(F)F)c1C#N (centres undefined),"inconclusive: 17.8 µM [inhibitor, single point]",
COc1ccc(NC(=O)/C(C#N)=C/c2ccc(Sc3nncn3C)c([N+](=O)[O-])c2)cc1,"inconclusive: 44.7 µM [inhibitor, partial curve, poor fit]",
CCc1ccc(CNc2ccc(N3CCN(C(C)=O)CC3)cc2)cc1,"inconclusive: 7.08 µM [inhibitor, partial curve, poor fit]",
COC(=O)c1nc(NC(=O)c2ccccc2Br)n[nH]1,"inconclusive: 89.1 µM [inhibitor, partial curve, poor fit]",
COC(=O)c1ccc2c(c1O)C(=O)c1ccccc1C2=O,active: 12.6 µM,
CC1=CC2(O)OCCN(CCO)C2=CC1=O (centres undefined),"inconclusive: 28.2 µM [inhibitor, single point]",
Cn1c(SCC(=O)c2ccccc2)nnc1C1CC1,active: 39.8 µM,
COc1ccccc1C(=O)NC(=O)CSc1nnc(N)s1,,inactive: -10.6% [at 12.7 µM]
CC1CC(=O)Nc2ccccc2N1S(=O)(=O)c1cccs1 (centres undefined),"inconclusive: 79.4 µM [inhibitor, partial curve]",
Cc1cccc(/C=C(\C#N)C(=O)Nc2ccccn2)c1,active: 44.7 µM,
COc1ccc(NC(=O)NCCCN2CCCC2=O)c(OC)c1,"inconclusive: 89.1 µM [inhibitor, partial curve, poor fit]",

Structure (SMILES),Potency,"activity, negative = inhibition"
CC(C)Cn1c(-c2csc3ccccc23)n[nH]c1=S,"inconclusive: 10 µM [inhibitor, partial curve, poor fit]",
CCCC(=O)N1CCN(Cc2nc3cc([N+](=O)[O-])ccc3n2C)CC1,"inconclusive: 0.794 µM [inhibitor, partial curve, poor fit]",
CC1Oc2ccccc2C=C1C1/C(=C(/O)c2ccccc2)C(=O)C(=O)N1CCCN(C)C (centres undefined),"inconclusive: 56.2 µM [inhibitor, partial curve, poor fit]",
Cc1ccncc1C(N)=O,"inconclusive: 50.1 µM [inhibitor, partial curve, poor fit]",
O=C(CSc1nnc(-c2ccncc2)n1Cc1ccco1)Nc1ccccc1Cl,"inconclusive: 79.4 µM [inhibitor, partial curve, poor fit]",
CSc1ccc(CCNC(=O)CCCn2nc(C)c3sc4ccccc4c3c2=O)cc1,"inconclusive: 8.91 µM [inhibitor, partial curve, poor fit]",
CN(Cc1ccccc1)C(=O)c1nc2ccccn2c1CN1CCC(N2CCOCC2)CC1,"inconclusive: 28.2 µM [inhibitor, partial curve, poor fit]",
CC(=O)c1ccc(NC(=O)CC2Nc3cccc4cccc(c34)NC2=O)cc1 (centres undefined),"inconclusive: 28.2 µM [inhibitor, single point]",
COc1cccc(CNC(=O)CCC2CCCN(C(=O)c3cc(C)on3)C2)c1 (centres undefined),inactive,
O=c1c2[nH]c3ccccc3c2ncn1CCN1CCNCC1,,inconclusive: -63.2% [inhibitor]
O=C(Nc1ccc(N2CCC(c3ccccc3)C2)c(C(=O)O)c1)c1ccc(Cl)cc1 (centres undefined),active: 10 µM,
O=C(COc1cccnc1[N+](=O)[O-])c1c[nH]c2ccccc12,"inconclusive: 39.8 µM [inhibitor, partial curve]",
O=C1CC(Nc2ccc3ccccc3c2)C(=O)N1Cc1ccccc1 (centres undefined),"inconclusive: 22.4 µM [inhibitor, single point]",
Nc1ccc2c(c1)OCCOCCOCCOCCOCCO2,active: 14.1 µM,
COc1ccc(CN2CCN(Cc3ccco3)CC2)c(OC)c1,active: 39.8 µM,
O=C(NNc1nc(-c2ccccc2)cs1)c1ccc(F)cc1,active: 20 µM,
CC(C(=O)Nc1ccc2c(c1)OCO2)c1ccc([N+](=O)[O-])cc1 (centres undefined),"inconclusive: 8.91 µM [inhibitor, partial curve, poor fit]",
COCCNCc1ccccc1[N+](=O)[O-],,inactive: 24% [at 2.33 µM]
COCCCNC(=O)CN1C(=O)COc2ccc(S(=O)(=O)N3CCCC3)cc21,inactive,
CCN1CCN(c2ccc(NC(=O)c3cc4ccccc4cc3OC)cc2C)CC1,"inconclusive: 1.78 µM [inhibitor, partial curve, poor fit]",
CCN(CC)CCN(C(=O)c1ccc([N+](=O)[O-])cc1)c1nc2ccc(OC)cc2s1,"inconclusive: 89.1 µM [inhibitor, single point]",
Cc1ccccc1Nc1nc(N)nc(COC(=O)CCC(=O)c2ccc(F)cc2)n1,inactive,
COc1ccccc1N1CCN(C(=O)c2cc3c(-c4ccc(Cl)cc4)nn(C)c3s2)CC1,"inconclusive: 79.4 µM [inhibitor, single point]",

Structure (SMILES),Potency,"activity, negative = inhibition"
CCCCn1c(CN2CCN(c3ccccc3)CC2)nc2c1c(=O)n(C)c(=O)n2C,"inconclusive: 35.5 µM [inhibitor, single point]",
O=C(NCc1ccco1)C1CC(c2ccccc2C(F)(F)F)=NO1 (centres undefined),inactive,
CC1SC(c2ccccc2Cl)NC1=O (centres undefined),inactive,
O=C(c1ccc(C(F)(F)F)cc1)N1CCC(=O)N([C@H](COCc2ccc(Cl)cc2)Cc2ccccc2)CC1,"inconclusive: 0.708 µM [inhibitor, full curve, poor fit]",
COc1ccc(NC2CCCN(C(=O)c3csc(C(C)C)n3)C2)cc1 (centres undefined),inactive,
CC(=O)NCCNc1ncnc2ccc(-c3c(C)noc3C)cc12,,inactive: -29.8% [at 0.501 µM]
CCc1ccc(Nc2n[n+](-c3ccccc3)c(-c3ccc(OCc4ccccc4)cc3)s2)cc1,"inconclusive: 35.5 µM [inhibitor, full curve, poor fit]",
O=NNc1nc2ccccc2n1Cc1ccccc1,"inconclusive: 3.16 µM [inhibitor, full curve, poor fit]",
CCOc1ccc(NC(=S)N(CCc2c(C)[nH]c3ccccc23)Cc2cccnc2)cc1,"inconclusive: 50.1 µM [inhibitor, partial curve]",
CN1CCN(/C(=N\O)c2nonc2N)CC1,"inconclusive: 89.1 µM [inhibitor, partial curve, poor fit]",
COc1ccccc1OCCCCCc1c(C)n[nH]c1C,,inconclusive: -113% [inhibitor]
CS(=O)(=O)c1ccc2nc(NC(=O)CCNC(=O)c3ccc(Cl)cc3)sc2c1,"inconclusive: 31.6 µM [inhibitor, partial curve, poor fit]",
COC(=O)C1=C(C)NC(C)=C(C(=O)OC)C1c1ccc(-c2cc(Cl)ccc2Cl)o1,active: 17.8 µM,
O=C(NCCCCCCNC(=O)c1ccc(Br)s1)c1ccc(Br)s1,"inconclusive: 25.1 µM [inhibitor, partial curve, poor fit]",
CN1CCN(c2ccc(-c3cccc(NC(=O)COc4ccc(Cl)cc4)c3)nn2)CC1,active: 50.1 µM,
CC(=O)COc1nc2c(c(-c3ccco3)c1C#N)CCc1ccccc1-2,active: 44.7 µM,
CCOc1ccc(NCc2cccn2-c2nnc(N3CCC(C(=O)NCCc4ccc(OC)c(OC)c4)CC3)s2)cc1,"inconclusive: 17.8 µM [inhibitor, partial curve, poor fit]",
COc1ccc(Cl)cc1-n1c(C)ccc1C,"inconclusive: 89.1 µM [inhibitor, single point]",
CCSc1ccccc1C(=O)NCc1ccc(S(N)(=O)=O)cc1,"inconclusive: 28.2 µM [inhibitor, single point]",
CCOC(=O)c1oc2ccc(/C=N/O)c(Cl)c2c1C,inactive,
O=C(N/N=C/c1ccc([N+](=O)[O-])cc1)c1cccc(N2CCCC2=O)c1,"inconclusive: 89.1 µM [inhibitor, single point]",
CN(C(=O)CSc1nnc(NCc2ccccc2)s1)C1CCS(=O)(=O)C1 (centres undefined),active: 50.1 µM,
Cc1nn(C)c(C(=O)N/N=C/c2ccc(-c3ccccc3)cc2)c1Cl,inactive,
